# Test results taken from the supplement of paper PMC8728848.
# Some of the results follow.
# B1: NanI (Corynebacterium diphtheriae), C6JSW7 (protein)
# chain: MTNTLESNPMTTTTGALTITFATTCDGPLAHIPHHLDLNIIHGRIQGTTAHRRIDAEDPDGLDDGLPHHLCLSVDTTGTHLFIDGYEAFSTTQTEWFDTSELTLNPHGDLTIIDHQILNHAPTPRQARNLAPAAEPLVWFAGSHLSTRDTQRISHLTHGSLRLLMKTRGTGQGGVAFQAHTINGDLTLEIIDGTLIFSVRCHDEDYVRITAPGRWDDGQIYDVVIVCGRGATDIYVDGQQLIHSPGAAFFNDLSGELSVHIGTAASGVRLFGEVQSGMIYPHVFNHHQVQRLATVEPIATQALFDCLLDGAQSYRIPSLITTDSGVIIAGADKRVSIANDAPNDIDFVLRRSVDGGRTWQPPRTILQLPDTACVTDSVLLQDHTTGRIFAFLDQFPAGIGQPNAAFGTGFDADGNRIGHFADGSTCTMPREVDQLEASFFSDPHTAPPGIVFQHPSCHLWMLTSDDDGLTWSTPRDLTPDVKEEWMRFCGTSPGNGIQLQRDTHAGRLLIPMYYTKGDQFFAAALYSDDHGDTWHRGESPDLEMYESTLVEASDGSVLLWARNQHPSGAVAHARSTDGGHSWSQVTFNPNVPEIFSQPNALRVTNPDGIIFANASQLLPFRGRGVLRMSTNDGASWQHNRVFNPRHYVYQCMTQLPDGSIGLLWEREMQGLFFSIIPMTWIMQGYAL
# Key:
# Test in all cases: glycan array binding signal (z-score within array); higher = stronger binding
# Conditions in all cases: glycan notation: IUPAC condensed, linker removed
# [1] = target: Neu5Ac(a2-6)Gal(b1-4)GlcNAc(b1-2)Man(a1-3)[GlcNAc(b1-2)Man(a1-6)]Man(b1-4)GlcNAc(b1-4)GlcNAc
# How it was run: (§1)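 Glycan array binding is given as a within-array Z-score, which can be read as non-binding when negative. The arrays, 3228 of them, came from the Consortium for Functional Glycomics database and were retained only where the protein sequence was available. Z-scores were averaged across arrays of the same protein sequence at different concentrations or buffers and across linkers.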
# [2] = target: Neu5Ac(a2-6)Gal(b1-4)GlcNAc(b1-2)Man(a1-3)[GlcNAc(b1-2)Man(b1-4)GlcNAc(b1-2)Man(a1-6)]Man(b1-4)GlcNAc(b1-4)GlcNAc
# How it was run: as §1
# [3] = target: Neu5Ac(a2-6)Gal(b1-4)GlcNAc(b1-2)Man(a1-3)[Man(a1-6)]Man(b1-4)GlcNAc(b1-4)GlcNAc
# How it was run: as §1
# [4] = target: Neu5Ac(a2-6)Gal(b1-4)GlcNAc(b1-2)Man(a1-3)[Neu5Ac(a2-6)Gal(b1-4)GlcNAc(b1-2)Man(a1-6)]Man(b1-4)GlcNAc(b1-4)GlcNAc
# How it was run: as §1
# [5] = target: Neu5Ac(a2-6)Gal(b1-4)GlcNAc(b1-2)Man(a1-6)Man(b1-4)GlcNAc(b1-4)GlcNAc
# How it was run: as §1
# [6] = target: Neu5Ac(a2-6)Gal(b1-4)GlcNAc(b1-2)Man(a1-6)[Gal(b1-4)GlcNAc(b1-2)Man(a1-3)]Man(b1-4)GlcNAc(b1-4)GlcNAc
# How it was run: as §1
# [7] = target: Neu5Ac(a2-6)Gal(b1-4)GlcNAc(b1-2)Man(a1-6)[GlcNAc(b1-2)Man(a1-3)]Man(b1-4)GlcNAc(b1-4)GlcNAc
# How it was run: as §1
# [8] = target: Neu5Ac(a2-6)Gal(b1-4)GlcNAc(b1-2)Man(a1-6)[Man(a1-3)]Man(b1-4)GlcNAc(b1-4)GlcNAc
# How it was run: as §1
# [9] = target: Neu5Ac(a2-6)Gal(b1-4)GlcNAc(b1-3)Gal(b1-3)GlcNAc
# How it was run: as §1
# [10] = target: Neu5Ac(a2-6)Gal(b1-4)GlcNAc(b1-3)Gal(b1-4)GlcNAc
# How it was run: as §1
# [11] = target: Neu5Ac(a2-6)Gal(b1-4)GlcNAc(b1-3)Gal(b1-4)GlcNAc(b1-3)Gal(b1-4)GlcNAc
# How it was run: as §1
# [12] = target: Neu5Ac(a2-6)Gal(b1-4)GlcNAc(b1-3)Gal(b1-4)[Fuc(a1-3)]GlcNAc(b1-3)Gal(b1-4)[Fuc(a1-3)]GlcNAc
# How it was run: as §1
# [13] = target: Neu5Ac(a2-6)Gal(b1-4)GlcNAc(b1-3)GalNAc
# How it was run: as §1
# [14] = target: Neu5Ac(a2-6)Gal(b1-4)GlcNAc6S
# How it was run: as §1
# Neu5Ac(a2-6)GalNAc = target: Neu5Ac(a2-6)GalNAc
# How it was run: as §1
# [15] = target: Neu5Ac(a2-6)GalNAc(b1-4)GlcNAc
# How it was run: as §1
# [16] = target: Neu5Ac(a2-6)GlcNAc(b1-4)GlcNAc
# How it was run: as §1
# [17] = target: Neu5Ac(a2-6)GlcNAc(b1-4)GlcNAc(b1-4)GlcNAc
# How it was run: as §1
# Neu5Ac(a2-8)Neu5Ac = target: Neu5Ac(a2-8)Neu5Ac
# How it was run: as §1
# [18] = target: Neu5Ac(a2-8)Neu5Ac(a2-3)Gal(b1-3)GalNAc(b1-4)[Neu5Ac(a2-8)Neu5Ac(a2-3)]Gal(b1-4)Glc
# How it was run: as §1
# [19] = target: Neu5Ac(a2-8)Neu5Ac(a2-3)Gal(b1-4)Glc
# How it was run: as §1
# [20] = target: Neu5Ac(a2-8)Neu5Ac(a2-3)[Gal(b1-3)GalNAc(b1-4)]Gal(b1-4)Glc
# How it was run: as §1
# [21] = target: Neu5Ac(a2-8)Neu5Ac(a2-3)[GalNAc(b1-4)]Gal(b1-4)Glc
# How it was run: as §1
# [22] = target: Neu5Ac(a2-8)Neu5Ac(a2-8)Neu5Ac
# How it was run: as §1
# [23] = target: Neu5Ac(a2-8)Neu5Ac(a2-8)Neu5Ac(a2-3)Gal(b1-4)Glc
# How it was run: as §1
# [24] = target: Neu5Ac(a2-8)Neu5Ac(a2-8)Neu5Ac(a2-3)[GalNAc(b1-4)]Gal(b1-4)Glc
# How it was run: as §1
# [25] = target: Neu5Ac(a2-8)Neu5Ac(a2-8)Neu5Ac(a2-8)Neu5Ac(a2-3)[GalNAc(b1-4)]Gal(b1-4)Glc
# How it was run: as §1
# [26] = target: Neu5Ac(b2-6)Gal(b1-4)GlcNAc
# How it was run: as §1
# Neu5Ac(b2-6)GalNAc = target: Neu5Ac(b2-6)GalNAc
# How it was run: as §1
# [27] = target: Neu5Ac9Ac(a2-3)Gal(b1-3)GlcNAc
# How it was run: as §1
binder,measurement,setting,value
B1,glycan array binding signal (z-score),[1],0.216
same,glycan array binding signal (z-score),[2],1.58
same,glycan array binding signal (z-score),[3],-0.536
same,glycan array binding signal (z-score),[4],0.411
same,glycan array binding signal (z-score),[5],-0.415
same,glycan array binding signal (z-score),[6],0.527
same,glycan array binding signal (z-score),[7],-0.653
same,glycan array binding signal (z-score),[8],-0.675
same,glycan array binding signal (z-score),[9],-0.501
same,glycan array binding signal (z-score),[10],-0.526
same,glycan array binding signal (z-score),[11],-0.846
same,glycan array binding signal (z-score),[12],-0.073
same,glycan array binding signal (z-score),[13],-0.58
same,glycan array binding signal (z-score),[14],1.06
same,glycan array binding signal (z-score),Neu5Ac(a2-6)GalNAc,-0.157
same,glycan array binding signal (z-score),[15],-0.085
same,glycan array binding signal (z-score),[16],0.019
same,glycan array binding signal (z-score),[17],-0.157
same,glycan array binding signal (z-score),Neu5Ac(a2-8)Neu5Ac,-0.202
same,glycan array binding signal (z-score),[18],-0.299
same,glycan array binding signal (z-score),[19],-0.109
same,glycan array binding signal (z-score),[20],1.2
same,glycan array binding signal (z-score),[21],-0.435
same,glycan array binding signal (z-score),[22],-0.456
same,glycan array binding signal (z-score),[23],-1.11
same,glycan array binding signal (z-score),[24],0.332
same,glycan array binding signal (z-score),[25],-0.376
same,glycan array binding signal (z-score),[26],-0.364
same,glycan array binding signal (z-score),Neu5Ac(b2-6)GalNAc,0.225
same,glycan array binding signal (z-score),[27],-0.335
